Test results taken from the RNAGym collection of RNA variant scans (doi:10.7554/elife.90254).
The source gives no read counts; variants with many changes may rest on few reads.

B1: LINE1-mini (parent)
chain: GGCAGAGCUCAACACAGCGUGGCAAAGUGGCUGUGGCUAGACUGCC

Variants of: B1
Test: self-cleavage, relative activity (ratio to wild type); higher = more cleavage; in vitro, sequencing; the parent is a self-cleaving ribozyme

Variant	self-cleavage
G19A U20A C23A G29U G44C	0.07
G5A A11G A12U G17C G30A C31A	0
C18A G22A G33A U34A	0.04
C3A A4U C13A C18G	0.2
U9A A11U U34A	0.02
G7A A16G C31U A39G	0.02
A4U C13A A26U	0.07
A11U A12U A16G G33A	0.01
G21A U28A A41U	1.78
A12G C15U A16G A41G C46U	0.01
G27A G29U A39C A41U	0.05
C13G A16G G21C C31G G35C U38A	0.02
G5U C15A C18G A26C C45U	0.21
C10G C13U C15U U20G G21C G29U	0.01
A16G G29U C42A	0.07
G7C C15U A24U C31A	0.32
A12U G17A C45U	0.04
U9G G35U G36A C42A	0.16
G1C G2C G30U A41U C42A	0.09
C13G C15U G27U	0.03
A4C G19C G27A	0.06
C3U U9G U34A G44A	0.09
G5C G7U A11C C31U G44C	0.02
G5U C8G C10U U28A	0.05

Variant	self-cleavage
G30U G40U C42U C45U	0.06
G7A G36U A39U	0.28
A6C C18A G21A G22U C42A	0.1
G1C C31U G40A C46A	0.01
G30A G35U A41G	0.1
C13G A14C A24C C46U	0.04
C3U C8G G21A C37U	0.1
G21A G36C C45A	0.07
G2U G21A C37A	0.07
G1U C8A U20A G21C G22A G29C U32A C46A	0.02
C8G C15U C46A	0.06
A16U G21C G44A	0.04
G2U C10U G22C G33A G36A	0.01
C10G A16U U20G C37A	0.02
U9G C18G A24U G35A G36A C42U G44A	0.01
A14C C37U C46U	0.02
C23G G27U U28G G35C C37A	0.06
G7A U20C G30U C46A	0.05
G1U C8A G19A G44C	0.01
G2C C3A C23A	0.42
A12U C23A G27A A41C	0.01
C15G A16G G21U U32A C42U	0.01
G7U C8G C13A	0.38
G7A U38C C42G G44U	0.04

Variant	self-cleavage
G7A C8U C10G G22U U28A U34G	0.03
G1U C15A G17C U43C C46G	0.02
A11C U20A U28G	0.02
C18G A24C A25U C31U C42G G44C	0.01
G2C G27U U32C G35A	0.04
G21A U38C C45U	2.8
G5C U9A A26G U32C	0.03
A12U A24G G27C G40C	0.04
G2A A6G U20A C23U G30A	0.05
C18U A26G U28G G30A C31A	0.26
U9C A26U C37G	0.04
A12C U28G C31A	0.02
U9A A14C U28C	0.08
C3A A39U C45A	0.21
C8U C13G C23A G30U G35A U43G G44A	0.07
G1A G2A C8G C31U	0.03
G7C A12U C18A U20C C23G	0.13
G5C G7A A14C G35C	0.02
G5A G35C A39G	0.05
C3G A26C G40C	0.16
A11U U20A A25U G36U G44C	0.01
U9A G21C U28C A41C C46U	0.03
C3U G19A C23A A39G U43A	0.1
C10A G17C A25U	0.03

Variant	self-cleavage
A4G U9G U38C	0.26
C8A C13A A16G G19A	0.04
C13A G22C U28C	0.03
G1U C3A A12C C15U	0.02
G17C C31G C42G	0.02
A24C G29U G36U	0.03
A4C G27C G29C G35A	0.05
G22A C23A G29C U32C	0.91
G22U C31U U32A	0.01
G5U G21A G29U C37A	0.06
A4C C10G U34C A39U	0.01
A4U C8A A14C G19C G27A	0.06
G27C C37U A39C C46A	0.26
A14G G19C A26G	0.09
G7U U20C A24G	0.09
G2U G5U C23U	0.02
U20C C23G G27U	0.15
A16G C23A U32A G35A	0.17
U28G G29A G40U	0.15
A4C A6G C13U C23A U38G	0.06
U20C A25C C37U G40U	0.25
A25U G29U C37U	0.3
U9G G33C G40C	0.03
C31A A39U C42A U43G	0.01

Variant	self-cleavage
G1C A4C U20C	0.06
C10G A11U A24C G35U A39C	0
C3U C8A U9C C13U G17U U20C C31U U32C	0.07
G1C G30U U34C	0.01
G7U A12U G17U	0.03
G1A A26G G35C	0.09
G5U U32G U34G	0.02
A6U C10G U20G C31U U34G C46G	0.01
A6G G33U C42A	0.07
A25G G33A G35U	0.27
G5A A6C A16C G17C	0.17
G2U G17U G27A C37U C45U	0.05
G1U C23U C31G G40A	0.01
C3U G7C C23A G35U	0.09
A4U G17A U20C U28A G30C	0.02
A6U U20C G21A G27U	0.16
C3A G5A G7U C8G C13G G17A G40U	0.76
G7A U32C U43C	0.12
C15A G19C G27C G40A	0.02
G2A C15U U38G	0.17
C10U A25G C37G U43A	0.05
A4C C31A G40C	0.05
C10A G21C C31U	0.03
A6C G7A A14C C18G C46A	0.04

Variant	self-cleavage
U20A U34C G44U	0.3
A4C C8A A12C C15U A39C	0.06
G2A A11G C23U	0.03
U9A C15A G44U	0.05
C15A A25C G40A	0.03
G5A G21U A25G	0.05
A25C G33U C45G	0.39
C3U C10U U20C G21C	0.02
C3U A12G G22A	0.24
C3G C8U C37A	1.02
C13G C15U G29C	0.02
C3A G36C G40U U43A	0.1
A16G G27A G29A C45G	0.09
G2C A6U A26U A39U	0.02
G1C G22U G35C C37G C45G	0.02
C18U C42A C45A	0
A16U U28G C46G	0.08
G30U C37A A41C C46G	0.01
G1U G22C G27A U34G G35U	0.01
G7U G17C G21C C31U	0.02
C10U A14G A25G A26U	0.05
G2C A4C A24C	0.02
G19U U20C C23G U32A	0.05
C8U C10G A12C	0

Variant	self-cleavage
G22U G30C A39C	0.1
G7A A12C C42G	0.02
C13A G29A C37A	0.02
C10A A12U G22C G36A U38A	0
A4C U9A A24U G40C A41U	0.57
G7C A11C G22A U38C	0.02
A16U A26C G27U U43C	0.03
G5C G7U A26G	0.07
C8A G29A G44A	0.25
A16G G36U G44U	0.42
G1C G7U C13U C15A U38C	0.02
C15U G19A U20G G29A U32G C46U	0.01
G2C C10A G22U	0.04
C15A C45A C46G	0.03
C10A A11C G30C A39U	0.01
C10U G17C G19A C37A	0.03
C3G A11G G19U G29U C31G	0.01
U20C G35C G40U	0
G2U C3G C8G U34G	0.24
G2A C3G G5U U32G	0.17
U9G A26C G30U	0.1
A6C A14G G40A U43C	0.03
A11U U20C A39G C46U	0.04
